{"source": "PubChem BioAssay AID485281", "about": "(National Center for Advancing Translational Sciences (NCATS), 2010)", "note": "The campaign covered roughly 350,000 compounds. About 260 (0.074%) were called active. This list was built around the results that the source calls inconclusive (neither active nor inactive); the mix of calls is not that of the screen. Calls follow the shape of the dose curve; as a rule, active = well fitted inhibition curve with a large enough effect; inconclusive = small, poorly fitted or top-dose-only effect; inactive = no such curve, though single readings can be large or run the other way. Potencies of inconclusive entries are doubtful fits and often do not repeat. % is scaled to controls: 0 for no effect and ±100 for the full control effect; potency is read from the fitted curve at half-maximal effect; tags tell the direction and shape of the fitted curve."}
{"target": "Ferritin light chain (Equus caballus) (UniProt P02791)", "sequence (P02791 whole entry, looked up)": "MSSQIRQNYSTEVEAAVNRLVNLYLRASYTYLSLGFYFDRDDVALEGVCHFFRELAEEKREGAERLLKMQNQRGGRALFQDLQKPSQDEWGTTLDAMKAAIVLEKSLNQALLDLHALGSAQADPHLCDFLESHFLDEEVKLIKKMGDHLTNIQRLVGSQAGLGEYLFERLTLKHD", "assay": "qHTS Assay for Identification of Novel General Anesthetics; also: nearly all actives have a fitted effect of over 20% in size", "details": "apoferritin/1-aminoanthracene competitive binding, fluorescence; activity change, negative = displacement: at 77.5 µM (top of the series)", "method_in_brief": "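In PBS, apoferritin at 10 uM is loaded with 1-AMA from a 50% saturated solution. After 10 min of compound exposure at ambient temperature, reduced 535 nm fluorescence indicates probe displacement.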"}
{"smiles": "O=C(c1ccc(-c2ccccc2)c(F)c1)C1CCCN(CCO)C1", "note": "(stereo not given)", "Potency": "inconclusive: 31.6 µM [inhibitor, partial curve]"}
{"smiles": "O=C(OCC(=O)c1ccc([N+](=O)[O-])cc1)/C(=C\\c1ccc(Cl)cc1)NC(=O)c1ccccc1", "Potency": "inconclusive: 22.4 µM [inhibitor, partial curve]"}
{"smiles": "CC1CCCN(CC(=O)c2ccc(Cl)c(Cl)c2)C1", "note": "(stereo not given)", "Potency": "inconclusive: 39.8 µM [inhibitor, single point]"}
{"smiles": "COc1ccc(Br)cc1C1SCC(=O)Nc2c1c(C)nn2-c1ccccc1C", "note": "(stereo not given)", "Potency": "inconclusive: 14.1 µM [inhibitor, partial curve]"}
{"smiles": "COc1ccc(C(Nc2ccccc2)P(=O)(Oc2ccccc2)Oc2ccccc2)cc1", "note": "(stereo not given)", "Potency": "inconclusive: 3.16 µM [inhibitor, partial curve, poor fit]"}
{"smiles": "CCC1(C)OC(c2ccccc2)=C/C(=C/C=C2C(=O)NC(=O)NC2=O)O1", "note": "(stereo not given)", "activity change, negative = displacement": "inactive: -16.2%"}
{"smiles": "CC1CCCN(C(=O)c2ccc(N3CC4CC(C3)c3cccc(=O)n3C4)c([N+](=O)[O-])c2)C1", "note": "(stereo not given)", "activity change, negative = displacement": "inactive: 4.02%"}
{"smiles": "c1ccc(C2CC3CC(c4ccco4)N2O3)cc1", "note": "(stereo not given)", "Potency": "inconclusive: 50.1 µM [inhibitor, single point]"}
{"smiles": "N#CCCn1cc(C(=O)Nc2ccc([N+](=O)[O-])cc2)c(-c2ccc3c(c2)OCCO3)n1", "Potency": "inconclusive: 3.16 µM [inhibitor, partial curve]"}
{"smiles": "CN1/C(=C\\C=C2C(=O)NC(=S)NC2=O)C(C)(C)c2ccccc21", "activity change, negative = displacement": "inactive: -8.78%"}
{"smiles": "O=C(N/N=C/c1c(O)n(CCC2=CCCCC2)c(=S)[nH]c1=O)c1ccccc1", "activity change, negative = displacement": "inactive: -16.2%"}
{"smiles": "CCCc1nc2ccc(Br)cc2c(=O)n1-c1ccc([N+](=O)[O-])c(C(F)(F)F)c1", "Potency": "inconclusive: 7.08 µM [inhibitor, full curve, poor fit]"}
{"smiles": "CCc1ccc(C2=NN(CCC(=O)N3CCC4(CC3)OCCO4)C(=O)CC2)cc1", "Potency": "inconclusive: 31.6 µM [inhibitor, partial curve]"}
{"smiles": "CC(=O)c1cccc(NC2=NCC(C)S2)c1", "note": "(stereo not given)", "Potency": "inconclusive: 56.2 µM [inhibitor, single point]"}
{"smiles": "O=P(Oc1ccccc1)(Oc1ccccc1)C(Nc1ccccc1)c1ccccc1", "note": "(stereo not given)", "activity change, negative = displacement": "inactive: -8.08%"}
{"smiles": "CN1CC(C(=O)c2ccccc2)C(C(=O)c2ccccc2)C1", "note": "(stereo not given)", "Potency": "inconclusive: 39.8 µM [inhibitor, partial curve]"}
{"smiles": "Cc1cc(/C=C2\\C(=O)NC(=O)N(c3ccc(Br)cc3)C2=O)c(C)n1C", "activity change, negative = displacement": "inactive: -6.23%"}
{"smiles": "CCCCSC1=NN1c1nc(N)nc(C)c1CC", "Potency": "inconclusive: 39.8 µM [inhibitor, partial curve]"}
{"smiles": "Cc1ccccc1N1C(=O)NC(=O)/C(=C\\c2ccc3c(c2)CCCN3Cc2ccccc2)C1=O", "Potency": "inconclusive: 31.6 µM [inhibitor, partial curve]"}
{"smiles": "CCOc1cc(/C=C2/C(=O)NC(=O)N(c3ccc(CC)cc3)C2=O)ccc1OC(=O)c1cccs1", "Potency": "inconclusive: 35.5 µM [inhibitor, partial curve]"}
{"smiles": "CCCCCCC(=O)N/N=C/c1c(O)n(CCCC)c(=S)[nH]c1=O", "activity change, negative = displacement": "inactive: -2.54%"}
{"smiles": "Oc1cc(Cl)ccc1Oc1ccc(Cl)cc1Cl", "Potency": "inconclusive: 35.5 µM [inhibitor, single point]"}
{"smiles": "O=C(N[C@@H]1CN2CCC1CC2)c1cc(Cl)cc2[nH]cnc12", "activity change, negative = displacement": "inactive: -7.8%"}
{"smiles": "COc1cc(C=C2C(=O)NC(=O)NC2=O)ccc1OCc1ccc([N+](=O)[O-])cc1", "Potency": "inconclusive: 25.1 µM [inhibitor, partial curve]"}
{"smiles": "COc1ccc(C2CN(C)CC2C(=O)c2ccc(C)cc2)cc1Cl", "note": "(stereo not given)", "Potency": "inconclusive: 28.2 µM [inhibitor, partial curve]"}
{"smiles": "NC(N)=NCCCCCCCCCCN=C(N)N", "activity change, negative = displacement": "inactive: 0.799%"}
{"smiles": "COc1ccc(OC)c(N2C(=O)/C(=C/c3ccco3)C(=O)NC2=S)c1", "activity change, negative = displacement": "inactive: -10.8%"}
{"smiles": "FC(F)(F)c1cccc(-n2nnnc2C2(N3CCOCC3)CCCCC2)c1", "Potency": "inconclusive: 39.8 µM [inhibitor, single point]"}
{"smiles": "COc1ccc(C(=O)CSc2nnc(CNC(=O)c3ccc(S(=O)(=O)N(C)C)cc3)o2)cc1", "Potency": "inconclusive: 31.6 µM [inhibitor, partial curve]"}
{"smiles": "Cc1ccc(OCCOc2cccc(C=C3C(=O)NC(=O)NC3=O)c2)c(C)c1", "Potency": "inconclusive: 35.5 µM [inhibitor, partial curve]"}
{"smiles": "O=C(c1ccccc1F)c1cn(CC(=O)N2CCCCC2)c2ccccc12", "Potency": "inconclusive: 28.2 µM [inhibitor, single point]"}
{"smiles": "Cc1[nH]c2ccccc2c1C1=CCNCC1", "Potency": "inconclusive: 35.5 µM [inhibitor, partial curve]"}
{"smiles": "C=CCC1(C(C)CCC)C(=O)N=C(S)NC1=O", "note": "(stereo not given)", "Potency": "inconclusive: 35.5 µM [inhibitor, single point]"}
{"smiles": "CC(C)N1C(=O)/C(=C/C=C/c2ccco2)C(=O)N(Cc2ccco2)C1=O", "Potency": "inconclusive: 31.6 µM [inhibitor, single point]"}
{"smiles": "CC1(C)C(C(=O)NN2C(=O)c3ccccc3C2=O)C1(C)C", "Potency": "inconclusive: 28.2 µM [inhibitor, partial curve]"}
{"smiles": "CCN(CC)c1ccc(/C=C2/C(=O)NC(=O)N(CC3CCCO3)C2=O)cc1", "note": "(stereo not given)", "Potency": "inconclusive: 31.6 µM [inhibitor, partial curve]"}
{"smiles": "CC(C)(C)OC(=O)N1CC(O)CC1C(=O)OCC(=O)c1ccc(-c2ccccc2)cc1", "note": "(stereo not given)", "Potency": "inconclusive: 25.1 µM [inhibitor, partial curve]"}
{"smiles": "BrC1C(Br)C(Br)C(Br)C(Br)C1Br", "note": "(stereo not given)", "Potency": "inconclusive: 28.2 µM [inhibitor, partial curve]"}
{"smiles": "COc1cccc(C2SCC(=O)Nc3c2c(C)nn3-c2ccc(C)c(Cl)c2)c1OC", "note": "(stereo not given)", "Potency": "inconclusive: 2.82 µM [inhibitor, full curve, poor fit]"}
{"smiles": "Cc1cccc(C(=O)OCc2cc3ccccc3[nH]c2=O)c1", "Potency": "inconclusive: 10 µM [inhibitor, full curve, poor fit]"}
{"smiles": "Cc1nc(NS(=O)(=O)c2cccc([N+](=O)[O-])c2)sc1C(C)(C)C", "Potency": "inconclusive: 17.8 µM [inhibitor, partial curve]"}
{"smiles": "Cc1ccc2c(c1)CC1(CN2C)C(=O)NC(=O)N(CCC2=CCCCC2)C1=O", "note": "(stereo not given)", "Potency": "inconclusive: 39.8 µM [inhibitor, partial curve]"}
{"smiles": "Cn1ncnc2c(=O)n(C)c(=O)nc1-2", "activity change, negative = displacement": "inactive: -9.09%"}
{"smiles": "CC(=O)C1C2c3ccccc3OC1(C)N=c1s/c(=C/c3cn(C)nc3C)c(=O)n12", "note": "(stereo not given)", "Potency": "inconclusive: 35.5 µM [inhibitor, partial curve]"}
{"smiles": "c1csc(-c2nnc(COc3ccc4c(c3)OCO4)o2)c1", "Potency": "inconclusive: 35.5 µM [inhibitor, partial curve]"}
{"smiles": "C[C@H](CCC(=O)O)C[C@H](C)C[C@H](C)C(=O)/C=C(\\O)[C@H](C)C[C@H](C)C/C=C/[C@@H](C)[C@@H](O)[C@@H](C)[C@@H](O)C[C@@H]1CC[C@@](C)(C2CC[C@@](C)([C@@H](C)O)O2)O1", "note": "(stereo not given in full)", "Potency": "inconclusive: 28.2 µM [inhibitor, partial curve]"}
{"smiles": "COP(=S)(OC)SCN1C(=O)c2ccccc2C1=O", "Potency": "inconclusive: 35.5 µM [inhibitor, single point]"}
{"smiles": "Cc1cc2oc(=O)cc(-c3ccccc3)c2c(C)c1-c1ccc(CO)cc1", "Potency": "inconclusive: 35.5 µM [inhibitor, partial curve]"}
{"smiles": "O=c1[nH]c(=S)n(CCC2=CCCCC2)c(O)c1/C=N/Nc1ccccc1", "Potency": "inconclusive: 35.5 µM [inhibitor, single point]"}
{"smiles": "CCC1(c2ccc(-c3ccccc3)cc2)C(=O)NC(=O)NC1=O", "Potency": "inconclusive: 39.8 µM [inhibitor, single point]"}
{"smiles": "CCN(CC)c1ccc(CNCCc2ccccc2F)cc1", "Potency": "inconclusive: 31.6 µM [inhibitor, partial curve]"}
{"smiles": "Cc1cc(/C=C2\\C(=O)NC(=O)N(Cc3ccco3)C2=O)c(C)n1-c1ccc(O)cc1", "Potency": "inconclusive: 25.1 µM [inhibitor, partial curve]"}
{"smiles": "O=C(O)CC1OCC=C2CN3CCC45C6=CC(=O)C(=O)C([N+](=O)[O-])=C6NC4C1C2CC35", "note": "(stereo not given)", "activity change, negative = displacement": "inactive: -2.71%"}
{"smiles": "O=C(COc1ccc(Cl)cc1Cl)Nc1ccc(CN2CCCCC2)cc1", "Potency": "inconclusive: 31.6 µM [inhibitor, partial curve]"}
{"smiles": "CC1=C(O)C(=O)C=C2C1=CC=C1[C@]2(C)CC[C@@]2(C)C3C[C@](C)(C(=O)O)CC[C@@]3(C)CC[C@@]12C", "note": "(stereo not given in full)", "Potency": "inconclusive: 35.5 µM [inhibitor, single point]"}
{"smiles": "CC1CN=C(Nc2ccc(N(C)C)cc2)S1", "note": "(stereo not given)", "Potency": "inconclusive: 31.6 µM [inhibitor, single point]"}
{"smiles": "C[n+]1c2ccccc2nc2ccc(NCCO)cc21", "activity change, negative = displacement": "inactive: -15.7%"}
{"smiles": "COc1cc(CC2C(=O)N(C)C(=O)N(C)C2=O)ccc1OCc1ccccc1", "activity change, negative = displacement": "inactive: -23%"}
{"smiles": "CC(C)(C)c1ccc(OCCON2C(=O)CCC2=O)c(Cl)c1", "Potency": "inconclusive: 35.5 µM [inhibitor, partial curve]"}
{"smiles": "O=C1/C(=C\\c2ccc(Cl)c(Cl)c2)N2CCC1CC2", "Potency": "inconclusive: 35.5 µM [inhibitor, single point]"}
{"smiles": "O=C(CN1CC=C(c2ccccc2)CC1)NC(=O)NC1CCCCC1", "Potency": "inconclusive: 39.8 µM [inhibitor, partial curve]"}
{"smiles": "Oc1ccc2c(c1)[C@@]13CCCCC1[C@@H](C2)N(CC1CCC1)CC3", "note": "(stereo not given in full)", "activity change, negative = displacement": "inactive: -0.315%"}
{"smiles": "CC(C)OC(=O)C1C2c3ccccc3C(c3ccccc32)C1C(=O)O", "note": "(stereo not given)", "activity change, negative = displacement": "inactive: -0.675%"}
{"smiles": "O=C1C[C@@H](c2ccc(O)cc2)Oc2cc(O)cc(O)c21", "Potency": "inconclusive: 11.2 µM [inhibitor, single point]"}
{"smiles": "Cc1ccc2nc(SCC(=O)N/N=C/c3ccco3)cc(C)c2c1", "Potency": "inconclusive: 20 µM [inhibitor, partial curve]"}
